Data from the antibiotic and cytotoxicity screens of Wong et al. (2023).
Some of the results follow.

Experiments:
HSkMC = human skeletal muscle cells; test: cytotoxicity call (relative viability < 0.9); conditions: 10 µM
HepG2 = test: cytotoxicity call (relative viability < 0.9); conditions: 10 µM
S. aureus RN4220 = test: growth inhibition call (relative growth <= 0.2); conditions: 50 µM

| SMILES | cytotoxicity call (HSkMC) | cytotoxicity call (HepG2) | growth inhibition call (S. aureus RN4220) |
| --- | --- | --- | --- |
| COc1ccc(S(=O)(=O)N(C)C[C@H]2Oc3ncc(C#CC4(O)CCCC4)cc3C(=O)N([C@@H](C)CO)C[C@@H]2C)cc1 | inactive | inactive | inactive |
| C[C@@H]1CN([C@H](C)CO)C(=O)c2cc(NS(=O)(=O)c3cn(C)cn3)ccc2O[C@@H]1CN(C)S(=O)(=O)c1cn(C)cn1 | inactive | inactive | inactive |
| COc1ccc(S(=O)(=O)N(C)C[C@H]2OCCCC[C@@H](C)Oc3ccc(NC(=O)C4CCCCC4)cc3C(=O)N([C@@H](C)CO)C[C@H]2C)cc1 | inactive | inactive | inactive |
| CC(C)NC(=O)N(C)C[C@@H]1Oc2ccc(NC(=O)CCC(F)(F)F)cc2CC(=O)N([C@@H](C)CO)C[C@H]1C | inactive | inactive | inactive |
| NC(=O)c1ncn(C2OC(CO)C(O)C2O)c1O (configuration not stated) | inactive | inactive | inactive |
| C[C@@H]1CN([C@H](C)CO)C(=O)c2c(c3ccccc3n2C)-c2ccccc2CO[C@@H]1CN(C)Cc1cccc(C(=O)O)c1 | inactive | inactive | inactive |
| COc1ccccc1S(=O)(=O)N1C[C@@H](O)COC[C@H]2O[C@H](CC(=O)O)CC[C@@H]21 | inactive | inactive | inactive |
| C[C@@H]1CN([C@@H](C)CO)C(=O)c2cc(NC(=O)Nc3ccccc3)ccc2O[C@@H](C)C/C=C\CO[C@H]1CN(C)S(=O)(=O)c1ccc(F)cc1 | inactive | inactive | inactive |
| O=C(c1ccccc1Cl)N(c1ccc2oc(=O)sc2c1)S(=O)(=O)c1ccc(Br)cc1 | inactive | inactive | inactive |
| CC(C)NC(=O)N(C)C[C@H]1OCCCC[C@@H](C)Oc2ccc(NS(=O)(=O)c3cn(C)cn3)cc2C(=O)N([C@H](C)CO)C[C@H]1C | inactive | inactive | inactive |
| C[C@@H]1CN([C@@H](C)CO)C(=O)c2cc(NS(=O)(=O)c3ccc(F)cc3)ccc2O[C@@H](C)CCCCO[C@@H]1CN(C)C(=O)c1ccccc1 | inactive | inactive | inactive |
| C[C@H](CO)N1C[C@H](C)[C@@H](CN(C)Cc2ccc(C(=O)O)cc2)Oc2c(NC(=O)Nc3cccc4ccccc34)cccc2C1=O | inactive | inactive | inactive |
| C[C@H]1CN([C@@H](C)CO)C(=O)CCCn2cc(nn2)CO[C@@H]1CN(C)C(=O)C1CC1 | inactive | inactive | inactive |
| C[C@H]1CN([C@@H](C)CO)C(=O)c2cccc(NC(=O)Nc3ccc4c(c3)OCO4)c2O[C@H]1CN(C)Cc1ccc(C(=O)Nc2ccccc2N)cc1 | inactive | inactive | inactive |
| COc1ccc(CN(C)C[C@@H]2Oc3ccc(NC(=O)CCN4CCOCC4)cc3C(=O)N([C@H](C)CO)C[C@@H]2C)cc1 | inactive | inactive | inactive |
| O=C(O)c1cc(O)ccc1O | inactive | inactive | inactive |
| Cc1noc(C)c1S(=O)(=O)N(C)C[C@H]1Oc2ccc(NS(=O)(=O)c3ccc(Cl)cc3)cc2CC(=O)N([C@H](C)CO)C[C@@H]1C | inactive | inactive | inactive |
| CN1CCN(C(=O)C[C@@H]2CC[C@H]3[C@@H](COc4ccc(NC(=O)c5ccc(F)c(F)c5)cc4C(=O)N3C)O2)CC1 | inactive | inactive | inactive |
| C[C@@H]1CN([C@@H](C)CO)C(=O)c2cccc(NC(=O)C3CCCCC3)c2O[C@@H]1CN(C)C(=O)Nc1ccc(C(F)(F)F)cc1 | inactive | inactive | active |
| C[C@H]1CN([C@@H](C)CO)C(=O)c2cccc(NC(=O)Nc3ccccc3)c2O[C@@H]1CN(C)Cc1ccc(-c2ccccc2)cc1 | inactive | inactive | inactive |
| C[C@H]1CN([C@@H](C)CO)C(=O)Cc2cc(NS(=O)(=O)c3cn(C)cn3)ccc2O[C@H]1CN(C)S(=O)(=O)c1ccccc1 | inactive | inactive | inactive |
| C[C@@H]1CCCCO[C@@H](CN(C)S(=O)(=O)c2cccs2)[C@@H](C)CN([C@@H](C)CO)C(=O)c2cc(NC(=O)Nc3ccc4c(c3)OCO4)ccc2O1 | inactive | inactive | inactive |
| C[C@H]1CN([C@@H](C)CO)C(=O)c2cc(NC(=O)C3CCCCC3)ccc2O[C@@H]1CN(C)Cc1ccc(C(F)(F)F)cc1 | inactive | inactive | inactive |
| Cc1nc(N=Nc2cc(S(=O)(=O)O)c3cc([N+](=O)[O-])cc(S(=O)(=O)O)c3c2)c(COP(=O)(O)O)c(C=O)c1O | inactive | inactive | inactive |
| C[C@H]1CN([C@@H](C)CO)C(=O)c2cccc(NS(=O)(=O)c3cn(C)cn3)c2O[C@@H]1CN(C)CC1CC1 | inactive | inactive | inactive |
| COc1ccc(S(=O)(=O)Nc2ccc3c(c2)C(=O)N([C@H](C)CO)C[C@@H](C)[C@H](CN(C)C(=O)Nc2ccccc2)OCCCC[C@H](C)O3)cc1 | inactive | inactive | inactive |
| C#CCOc1cccc2c1CCNC2=O | inactive | inactive | inactive |

| SMILES | cytotoxicity call (HSkMC) | cytotoxicity call (HepG2) | growth inhibition call (S. aureus RN4220) |
| --- | --- | --- | --- |
| O=C(C[C@H]1CC[C@H]2[C@@H](COC[C@@H](O)CN2C(=O)Nc2cccc(Cl)c2)O1)NCCCN1CCOCC1 | inactive | inactive | inactive |
| CC(C)NC(=O)N(C)C[C@H]1Oc2ccc(NC(=O)Cn3cnnn3)cc2C(=O)N([C@@H](C)CO)C[C@H]1C | inactive | inactive | inactive |
| COc1ccc(S(=O)(=O)N(C)C[C@H]2Oc3ccc(NS(=O)(=O)c4cccs4)cc3CC(=O)N([C@@H](C)CO)C[C@H]2C)cc1 | inactive | inactive | inactive |
| C[C@H]1CN([C@@H](C)CO)C(=O)c2cccc(NC(=O)NC3CCCCC3)c2O[C@H]1CN(C)C(=O)Nc1ccc(C(F)(F)F)cc1 | active | active | inactive |
| O=C(CCCCC(=O)N/N=C/[C@H](O)[C@@H](O)[C@@H](O)[C@H](O)CO)NO | inactive | inactive | inactive |
| O=C(c1cccnc1)N1C[C@H]2[C@@H](c3ccccc31)[C@@H](CO)N2C(=O)CN1CCOCC1 | inactive | inactive | inactive |
| CNC[C@@H]1Oc2ccc(NS(=O)(=O)c3cn(C)cn3)cc2C(=O)N([C@@H](C)CO)C[C@H]1C | inactive | inactive | inactive |
| Cc1nc(=O)[nH]c(C(=O)O)c1C | inactive | inactive | inactive |
| C[C@H](CO)N1C[C@H](C)[C@H](CN(C)Cc2ccc(F)cc2)Oc2ncc(-c3cccc(C(F)(F)F)c3)cc2C1=O | inactive | inactive | inactive |
| C[C@@H]1CCCCO[C@H](CN(C)C(=O)NC2CCCCC2)[C@H](C)CN([C@H](C)CO)C(=O)c2cc(NC(=O)c3ccncc3)ccc2O1 | inactive | inactive | inactive |
| C[C@@H]1CN([C@H](C)CO)C(=O)CCCn2cc(nn2)CO[C@H]1CN(C)C(=O)Nc1cccc(C(F)(F)F)c1 | inactive | inactive | inactive |
| C[C@@H]1CCCCO[C@H](CN(C)Cc2ccc(C(F)(F)F)cc2)[C@H](C)CN([C@H](C)CO)C(=O)c2cc(NC(=O)Nc3ccc(C(F)(F)F)cc3)ccc2O1 | active | active | inactive |
| Cc1ccc(S(=O)(=O)N(C)C[C@@H]2Oc3ncc(C#Cc4ccccc4)cc3C(=O)N([C@H](C)CO)C[C@@H]2C)cc1 | inactive | inactive | inactive |
| C[C@@H]1CCCCO[C@@H](CN(C)C(=O)Nc2ccc(F)cc2)[C@H](C)CN([C@H](C)CO)C(=O)c2cc(NC(=O)Cc3ccccc3)ccc2O1 | inactive | inactive | inactive |
| Cc1noc(C)c1S(=O)(=O)N(C)C[C@H]1Oc2c(NS(=O)(=O)c3ccc(F)cc3)cccc2C(=O)N([C@@H](C)CO)C[C@H]1C | inactive | inactive | inactive |
| C[C@@H]1CN([C@@H](C)CO)C(=O)c2ccccc2-c2ccccc2CO[C@@H]1CN(C)Cc1cccc2c1OCCCO2 | inactive | inactive | inactive |
| C[C@H](CO)N1C[C@H](C)[C@H](CN(C)C(=O)Nc2ccc(C(F)(F)F)cc2)OCCCC[C@H](C)Oc2ccc(NS(=O)(=O)c3cccs3)cc2C1=O | inactive | active | inactive |
| C[C@@H]1CN([C@H](C)CO)C(=O)c2cc(NS(=O)(=O)c3ccc(F)cc3)ccc2O[C@H]1CN(C)Cc1ccc(-c2ccccc2)cc1 | inactive | active | inactive |
| CC(C)NC(=O)Nc1ccc2c(c1)C(=O)N([C@H](C)CO)C[C@@H](C)[C@@H](CN(C)Cc1ccc(C(=O)O)cc1)O2 | inactive | inactive | inactive |
| N[C@@H]1CC[C@@H](CCn2cc(-c3cccc(F)c3)nn2)O[C@H]1CO | inactive | inactive | inactive |
| CO[C@H](CN(C)C(=O)c1ccc2c(c1)OCO2)[C@H](C)CN([C@@H](C)CO)S(=O)(=O)c1ccc(F)cc1 | inactive | inactive | inactive |
| O=C(C[C@H]1C=C[C@H](NC(=O)c2cccc(F)c2)[C@H](CO)O1)NCCN1CCCC1 | inactive | inactive | inactive |
| C=CCC[C@H](Cc1ccc(F)cc1)C(=O)OC[C@H](Cc1c[nH]c2ccccc12)NC(=O)[C@@H](CC=C)CC(=O)N(CCO)Cc1ccccc1 | active | active | inactive |
| C[C@@H]1CN([C@@H](C)CO)C(=O)c2cc(NC(=O)C3CC3)ccc2O[C@@H]1CN(C)C(=O)Nc1ccc2c(c1)OCO2 | inactive | inactive | inactive |
| COc1ccc(CC(=O)c2ccc(O)cc2O)cc1 | inactive | inactive | inactive |
| C[C@@H]1CN([C@@H](C)CO)C(=O)c2cc(NS(=O)(=O)c3ccccc3)ccc2O[C@@H](C)CCCCO[C@H]1CN(C)C(=O)CCC(F)(F)F | inactive | inactive | inactive |
| C[C@@H]1CCCCO[C@@H](CN(C)C(=O)Nc2ccccc2)[C@H](C)CN([C@H](C)CO)C(=O)c2cc(NC(=O)C3CCCCC3)ccc2O1 | inactive | inactive | inactive |
